Measurements reported in US12398141B2 (SHANGHAI SYNERGY PHARMACEUTICAL SCIENCES CO., LTD, priority 2019, dated 2025).
At least one structure is not confirmed: it was looked up by name or label, or the drawing left a doubt.

molecular target: JAK1 (Homo sapiens (Human), UniProt P23458); experiment: JAK1 LANCE Ultra kinase assay; type: biochemical; settings: ratio of IC50 JAK2 to IC50 JAK1
Method: Inhibition test on activity of JAK kinase in vitro was carried out by the following methods.
JAK1 LANCE® Ultra assay, JAK2 LANCE® Ultra assay and JAK3 LANCE® Ultra assay were used to carry out the test separately, and kits of the above assays were supplied by PerkinElmer. […]
JAK1, JAK2 and JAK3 kinase, ATP and substrates were dissolved and diluted with buffers.
A test liquid was 2 nM Eu-W1024 anti-phosphotyrosine (PerkinElmer, AD0069). A stop buffer was 10 mM edetic acid (Intech, 1842C505).
2.5 μl of an 8-fold solution of the compound and 5 μl of a 4-fold solution of JAK1 or JAK2 or JAK3 kinase were added into a 384-well plate, respectively, and reacted for 10 minutes at room temperature. 2.5 μl of an 8-fold solution of ULight™-JAK-1 peptide/ATP was added and reacted for 90 minutes at room temperature. Finally, 5 μl of 4-fold edetic acid stop buffer and 5 μl of 4-fold test liquid of Eu-W1024 anti-phosphotyrosine were added and incubated for 60 minutes.
According to the formula: percentage of inhibition rate=(maximum value−transform value)/(maximum value−minimum value)×100, inhibition rate of each compound at various concentrations was calculated. The maximum value was the reference value of dimethyl sulfoxide added into the well plate, the minimum value was the blank value, and the transform value is the value obtained by the well of each compound. The IC50 values of the corresponding compounds were then obtained by fitting by using the XLFit fitting tool in excel.

Chain of JAK1 (P23458 whole entry): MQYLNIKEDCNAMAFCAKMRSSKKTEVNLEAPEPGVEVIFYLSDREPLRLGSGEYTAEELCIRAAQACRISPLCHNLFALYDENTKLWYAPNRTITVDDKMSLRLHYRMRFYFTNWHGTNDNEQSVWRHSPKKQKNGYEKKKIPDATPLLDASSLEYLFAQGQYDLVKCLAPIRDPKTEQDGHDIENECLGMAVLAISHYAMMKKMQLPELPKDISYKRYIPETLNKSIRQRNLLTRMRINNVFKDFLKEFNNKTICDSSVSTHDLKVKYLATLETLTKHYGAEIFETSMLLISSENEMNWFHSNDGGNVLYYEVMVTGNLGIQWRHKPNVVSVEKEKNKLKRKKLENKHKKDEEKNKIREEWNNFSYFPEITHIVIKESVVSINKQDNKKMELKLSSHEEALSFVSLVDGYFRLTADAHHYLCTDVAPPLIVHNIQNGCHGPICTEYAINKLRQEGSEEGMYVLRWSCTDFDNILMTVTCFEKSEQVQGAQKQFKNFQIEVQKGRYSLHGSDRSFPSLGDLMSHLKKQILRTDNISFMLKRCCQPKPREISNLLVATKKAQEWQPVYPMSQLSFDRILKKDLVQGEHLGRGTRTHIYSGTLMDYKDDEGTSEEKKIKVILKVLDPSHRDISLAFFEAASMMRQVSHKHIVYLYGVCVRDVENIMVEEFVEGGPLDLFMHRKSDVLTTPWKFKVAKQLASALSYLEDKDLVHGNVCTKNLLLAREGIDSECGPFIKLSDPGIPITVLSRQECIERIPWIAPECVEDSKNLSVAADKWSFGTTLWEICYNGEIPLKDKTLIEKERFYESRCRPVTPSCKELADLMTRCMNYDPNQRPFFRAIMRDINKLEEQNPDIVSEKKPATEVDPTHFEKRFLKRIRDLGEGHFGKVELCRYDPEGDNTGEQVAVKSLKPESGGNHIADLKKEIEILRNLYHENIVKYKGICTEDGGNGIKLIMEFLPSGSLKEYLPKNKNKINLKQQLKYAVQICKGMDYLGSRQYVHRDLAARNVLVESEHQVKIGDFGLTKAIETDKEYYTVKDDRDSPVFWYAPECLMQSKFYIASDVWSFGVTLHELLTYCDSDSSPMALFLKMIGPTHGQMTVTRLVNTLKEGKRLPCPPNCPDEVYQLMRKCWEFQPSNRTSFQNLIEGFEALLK

Question: For CNc1nsc(NC(=O)N2C[C@H]3C[C@H](N(C)c4c(C#N)cnc5[nH]ccc45)C[C@H]3C2)n1 [Compound H41, (3aR,5s,6aS)-5-((5-cyano-1H-pyrrolo[2,3-b]pyridin-4-yl)(methyl)amino)-N-(3-(methylamino)-1,2,4-thiadiazole-5-yl)hexahydrocyclopentadiene[c]pyrrole-2(1H)-carboxamide], which JAK2/JAK1 is on record?
Answer: The JAK2/JAK1 was 9.17.

Question: CN(c1c(C#N)cnc2[nH]ccc12)[C@H]1C[C@@H]2CN(C(=O)Nc3nc(CO)ns3)C[C@@H]2C1 [Compound H42, (3aR,5s,6aS)-5-((5-cyano-1H-pyrrolo[2,3-b]pyridin-4-yl)(methyl)amino)-N-(3-hydroxymethyl-1,2,4-thiadiazole-5-yl)hexahydrocyclopentadiene[c]pyrrole-2(1H)-carboxamide] was tested. Which JAK2/JAK1 did it give?
Answer: Its JAK2/JAK1 is 5.92.

Question: With N#Cc1cnc2[nH]ccc2c1N[C@H]1CN(C(=O)NCC(F)(F)F)C[C@H]1C1CC1 [Compound H74, (cis)-3-((5-cyano-1H-pyrrolo[2,3-b]pyridin-4-yl)amino)-4-cyclopropyl-N-isobutyl pyrrolidin-1-carboxamide] as the compound, how does the JAK2/JAK1 read?
Answer: Its JAK2/JAK1 is 14.07.

Question: For COc1nsc(NC(=O)N2C[C@H]3C[C@H](Nc4c(C#N)cnc5[nH]ccc45)C[C@H]3C2)n1 [Compound H20, (3aR,5s,6aS)-5-((5-cyano-1H-pyrrolo[2,3-b]pyridin-4-yl)amino)-N-(3-methoxy-1,2,4-thiadiazole-5-yl)hexahydrocyclopentadiene[c]pyrrole-2(1H)-carboxamide], which JAK2/JAK1 is on record?
Answer: Its JAK2/JAK1 is 6.20.

Question: Which JAK2/JAK1 does the source give for COc1nsc(NC(=O)N2C[C@H]3C[C@H](N(C)c4c(C#N)cnc5[nH]ccc45)C[C@H]3C2)n1 [Compound H07, (3aR,5s,6aS)-4-({2-[(3-methoxy-1,2,4-thiadiazole-5-yl)carbamoyl]-hexahydrocyclopenta[c]pyrrole-5-yl}-methyl-amino)-1H-pyrrolo[2,3-b]pyridin-5-carbonitrile] here?
Answer: The JAK2/JAK1 was 9.35.

Question: CN(c1c(C#N)cnc2[nH]ccc12)[C@H]1C[C@@H](NS(=O)(=O)c2cccc(C(F)(F)F)c2)C1 [Compound H09, 4-{[3-(3-(trifluoromethyl)benzenesulfonamido)-cyclobutyl-1-yl]-methyl-amino}-1H-pyrrolo[2,3-b]pyridin-5-carbonitrile] was tested. Which JAK2/JAK1 did it give?
Answer: Its JAK2/JAK1 is 6.86.

Question: Which JAK2/JAK1 does the source give for COc1nsc(NC(=O)N2C[C@H]3C[C@H](Nc4c(C(F)(F)F)cnc5[nH]ccc45)C[C@H]3C2)n1 [Compound H50, (3aR,5s,6aS)-5-((5-trifluoromethyl-1H-pyrrolo[2,3-b]pyridin-4-yl)amino)-N-(3-methoxy-1,2,4-thiadiazole-5-yl)hexahydrocyclopentadiene[c]pyrrole-2(1H)-carboxamide] here?
Answer: Its JAK2/JAK1 is 7.10.

Question: With N#Cc1cnc2[nH]ccc2c1N[C@H]1C[C@@H](NS(=O)(=O)c2cccc3nonc23)C1 [Compound H19, (cis)-4-{[3-(benzo[c][1,2,5]oxadiazole-4-sulfonamido)-cyclobutyl-1-yl]-amino}-1H-pyrrolo[2,3-b]pyridin-5-carbonitrile] as the compound, how does the JAK2/JAK1 read?
Answer: The JAK2/JAK1 was 7.50.

Question: How did the JAK2/JAK1 turn out when CN(c1c(C#N)cnc2[nH]ccc12)C1CCN(S(=O)(=O)c2cccc(C(F)(F)F)c2)CC1 [Compound H35, 4-((1-((3-(trifluoromethyl)phenyl)sulfonyl)piperidin-4-yl)-methyl-amino)-2,3-dihydro-1H-pyrrolo[2,3-b]pyridin-5-carbonitrile] was run?
Answer: Its JAK2/JAK1 is 14.86.

Question: How did the JAK2/JAK1 turn out when N#Cc1cnc2[nH]ccc2c1N[C@H]1C[C@@H](NS(=O)(=O)CCC(F)(F)F)C1 [Compound H12, (cis)-4-{[3-(3,3,3-trifluoropropanesulfonamido)-cyclobutyl-1-yl]-amino}-1H-pyrrolo[2,3-b]pyridin-5-carbonitrile] was run?
Answer: Its JAK2/JAK1 is 13.63.

Question: Which JAK2/JAK1 does the source give for CC[C@@H]1CN(C(=O)NCC(F)(F)F)CC1N(C)c1c(C#N)cnc2[nH]ccc12 (stereo partly drawn) [Compound H02] here?
Answer: The JAK2/JAK1 was 7.65.

Question: Which JAK2/JAK1 does the source give for N#Cc1cnc2[nH]ccc2c1NC1CCN(S(=O)(=O)c2cccc(C(F)(F)F)c2)CC1 [Compound H34] here?
Answer: Its JAK2/JAK1 is 7.50.

Question: How did the JAK2/JAK1 turn out when CC[C@@H]1CC(NS(=O)(=O)c2cccc3nonc23)C[C@@H]1Nc1c(C#N)cnc2[nH]ccc12 (stereo partly drawn) [Compound H58, N-(3-((5-cyano-1H-pyrrolo[2,3-b]pyridin-4-yl)amino)-4-ethylcyclopentyl)benzo[c][1,2,5] oxadiazole-4-sulfamide] was run?
Answer: The JAK2/JAK1 was 6.93.

Question: CCn1cnc(NC(=O)N2C[C@H]3C[C@H](N(C)c4c(C#N)cnc5[nH]ccc45)C[C@H]3C2)n1 [Compound H31, (3aR,5s,6aS)-4-({2-[(1-ethyl-1H-1,2,4-triazole-3-yl)-carbamoyl]-hexahydrocyclopenta[c]pyrrole-5-yl}-methyl-amino)-1H-pyrrolo[2,3-b]pyridin-5-carbonitrile] was tested. Which JAK2/JAK1 did it give?
Answer: Its JAK2/JAK1 is 2.46.

Question: CN(C)Cc1nsc(NC(=O)N2C[C@H]3C[C@H](N(C)c4c(C#N)cnc5[nH]ccc45)C[C@H]3C2)n1 [Compound H54, (3aR,5s,6aS)-5-((5-cyano-1H-pyrrole[2,3-b]pyridin-4-yl)(methyl)amino)-N-(3-((dimethylamino)methyl)-1,2,4-thiadiazole-5-yl)hexahydrocyclopenta[c]pyrrole-2(1H)-carboxamide] was tested. Which JAK2/JAK1 did it give?
Answer: The JAK2/JAK1 was 6.81.

Question: For COC(=O)c1nsc(NC(=O)N2C[C@H]3C[C@H](N(C)c4c(C#N)cnc5[nH]ccc45)C[C@H]3C2)n1 [Compound H53, Methyl 5-((3aR,5s,6as)-5-((5-cyano-1H-pyrrole[2,3-b]pyridin-4-yl)(methyl)amino)octahydrocyclopenta[c]pyrrole-2-formamido)-1,2,4-thiadiazole-3-carboxylate], which JAK2/JAK1 is on record?
Answer: Its JAK2/JAK1 is 6.25.

Question: How did the JAK2/JAK1 turn out when CC(C)COC1CCCN(S(=O)(=O)C[C@H]2CC[C@H](N(C)c3c(C#N)cnc4[nH]ccc34)CC2)C1 (stereo partly drawn) [Compound H65, 4-((trans-4-(((3-isobutoxypiperidin-1-yl)sulfonyl)methyl)cyclohexyl)(methyl)amino)-1H-pyrrolo[2,3-b]pyridin-5-acetonitrile] was run?
Answer: The JAK2/JAK1 was 6.56.

Question: CN(c1c(C#N)cnc2[nH]ccc12)[C@H]1C[C@@H]2CN(C(=O)Nc3nc(O)ns3)C[C@@H]2C1 [Compound H38, (3aR,5s,6aS)-5-((5-cyano-1H-pyrrolo[2,3-b]pyridin-4-yl)(methyl)amino)-N-(3-hydroxy-1,2,4-thiadiazole-5-yl)hexahydrocyclopentadiene[c]pyrrole-2(1H)-carboxamide] was tested. Which JAK2/JAK1 did it give?
Answer: The JAK2/JAK1 was 4.69.

Question: For CN(c1c(C#N)cnc2[nH]ccc12)C1CCN(C(=O)NCC(F)(F)F)C1 (stereo not drawn) [Compound H37, 3-((5-cyano-1H-pyrrolo[2,3-b]pyridin-4-yl)methyl-amino)-N-(2,2,2-trifluoroethyl)pyrrolidin-1-carboxamide], which JAK2/JAK1 is on record?
Answer: Its JAK2/JAK1 is 8.57.

Question: How did the JAK2/JAK1 turn out when N#Cc1cnc2[nH]ccc2c1NC1CCN(C(=O)NCC(F)(F)F)C1 (stereo not drawn) [Compound H36, 3-((5-cyano-1H-pyrrolo[2,3-b]pyridin-4-yl)amino)-N-(2,2,2-trifluoroethyl) pyrrolidin-1-carboxamide] was run?
Answer: The JAK2/JAK1 was 8.67.

Question: Which JAK2/JAK1 does the source give for C[C@H](O)C(=O)N1C[C@H]2C[C@@H](N(C)c3c(C#N)cnc4[nH]ccc34)C[C@H]2C1 [Compound H06, (3aR,5R,6aS)-4-{[2-((2S)-2-hydroxypropionyl)-hexahydrocyclopenta[c]pyrrole-5-yl]-methyl-amino}-1H-pyrrolo[2,3-b]pyridin-5-carbonitrile] here?
Answer: The JAK2/JAK1 was 4.47.

Question: For CN(c1c(C#N)cnc2[nH]ccc12)[C@H]1C[C@@H](NS(=O)(=O)c2cccc3nonc23)C1 [Compound H18, (cis)-4-{[3-(benzo[c][1,2,5]oxadiazole-4-sulfonamido)-cyclobutyl-1-yl]-methyl-amino}-1H-pyrrolo[2,3-b]pyridin-5-carbonitrile], which JAK2/JAK1 is on record?
Answer: Its JAK2/JAK1 is 8.80.

Question: Which JAK2/JAK1 does the source give for CCC1CN(C(=O)NCC(F)(F)C(F)(F)F)CC1Nc1c(C#N)cnc2[nH]ccc12 (stereo not drawn) [Compound H83, 3-((5-cyano-1-H-pyrrolo[2,3-b]pyridin-4-yl)amino)-4-ethyl-N-(2,2,3,3,3-pentafluoropropyl)-pyrrolidin-1-carboxamide] here?
Answer: Its JAK2/JAK1 is 9.19.

Question: CC[C@@H]1CN(C(=O)NCC(F)(F)F)CC1Nc1c(C#N)cnc2[nH]ccc12 (stereo partly drawn) [Compound H01] was tested. Which JAK2/JAK1 did it give?
Answer: Its JAK2/JAK1 is 8.48.
